Laboratory results reported in the supplement of paper PMC8007513.
Counter-ions that a name gives are not always drawn. ± gives the standard error. Out of some 1,300 compounds screened, about 75 (6%) showed an effect of 50% or more. Some of the results follow.

System: Trichoderma virens ATCC 9645
Experiment: growth yield (OD600) relative to untreated control; higher = less growth inhibition
Details: compound concentration: 100 uM
Procedure, shortened: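 Trichoderma virens ATCC 9645 spores, from potato dextrose agar plates grown for 7 days, were brought to 15,000 spores ml^−1 in potato dextrose broth and dispensed as 100 μl aliquots into 96-well plates. Each aliquot received library compounds at 100 μM final, with or without a biocide at 200 ng ml^−1, before growth at 30 °C and OD600 readings on a BioTek EL800 at 40 h and 72 h. Growth is expressed relative to the control containing neither agent and represents means of duplicate screens.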

Row | Structure (SMILES) | growth yield (40 h) [%] | growth yield (72 h) [%]
1 | CCOCCn1c(N2CCCN(C)CC2)nc2ccccc21 [Emedastine] | 98.96 ± 0.16 | 96.9 ± 2.7
2 | CC[C@H](C)C(=O)O[C@H]1C[C@H](O)C=C2C=C[C@H](C)[C@H](CC[C@@H](O)C[C@@H](O)CC(=O)O)[C@H]21 [Pravastatin] | 94.2 ± 9.4 | 93.3
3 | Cc1cccn2c(=O)c(-c3nnn[nH]3)cnc12 [Pemirolast potassium] | 95.1 ± 1.1 | 98.7 ± 3.2
4 | Cc1nccn1CC1CCc2c(c3ccccc3n2C)C1=O (configuration not stated) [Ondansetron Hydrochloride] | 106 ± 3.3 | 103.1 ± 0.94
5 | CC(=O)NC[C@H]1CN(c2ccc(N3CCOCC3)c(F)c2)C(=O)O1 [Linezolid] | 110 ± 15 | 110 ± 12
6 | COc1ccc2c(c1)c(CC(=O)OCC(=O)O)c(C)n2C(=O)c1ccc(Cl)cc1 [Acemetacin] | 84.5 ± 0.32 | 84.6 ± 1.6
7 | CC[C@@]1(O)C(=O)OCc2c1cc1n(c2=O)Cc2cc3c(CN(C)C)c(O)ccc3nc2-1 [Topotecan] | 94.5 ± 2.4 | 88.7 ± 2.9
8 | Nc1nnc(-c2cccc(Cl)c2Cl)c(N)n1 [Lamotrigine] | 110 ± 2.1 | 110 ± 0.52
9 | Nc1nc(=O)[nH]cc1F [Flucytosine] | 97.8 ± 4.8 | 96.4 ± 1.8
10 | Clc1cc(Cl)c(OCC#CI)cc1Cl [Haloprogin] | 6.04 ± 1.6 | 5.14 ± 0.73
11 | Cc1cccc(C)c1NC(=O)CN1CCN(CCCC(c2ccc(F)cc2)c2ccc(F)cc2)CC1 [Lidoflazine] | 95.6 ± 1.3 | 114 ± 3
12 | CC(=O)O[C@]1(C(C)=O)CC[C@H]2[C@@H]3C=C(C)C4=CC(=O)CC[C@]4(C)[C@H]3CC[C@@]21C [Megestrol acetate] | 93.2 ± 3 | 90.09 ± 0.32
13 | CC(C)NC(=N)NC(=N)Nc1ccc(Cl)cc1 [Proguanil hydrochloride] | 110 ± 13 | 109 ± 9
14 | COc1ccc2c3c1O[C@H]1C[C@@H](O)C=C[C@@]31CCN(C)C2 [Galanthamine hydrobromide] | 102 ± 4 | 99.8 ± 2.3
15 | Cc1nnc(SCC2=C(C(=O)O)N3C(=O)[C@@H](NC(=O)Cn4cnnn4)[C@H]3SC2)s1 [Cefazolin sodium salt] | 102 ± 4.3 | 99.8 ± 1.9
16 | O=c1[nH]c(=O)n([C@H]2C[C@H](O)[C@@H](CO)O2)cc1C(F)(F)F [Trifluridine] | 109.9 ± 0.95 | 106 ± 1.1
17 | CCCCCCCCNC(C)C(O)c1ccc(SC(C)C)cc1 (configuration not stated) [Suloctidil] | 59.9 ± 14 | 96.6 ± 15
18 | CC(=O)CC(c1ccc([N+](=O)[O-])cc1)c1c(O)c2ccccc2oc1=O (configuration not stated) [Acenocoumarol] | 101 ± 3.3 | 102 ± 2.2
19 | S=c1[nH]cnc2nc[nH]c12 [Mercaptopurine] | 101 ± 1.8 | 99.6 ± 3.1
20 | CN(Cc1ccc(C(C)(C)C)cc1)Cc1cccc2ccccc12 [Butenafine Hydrochloride] | 2.06 ± 1.4 | 1.99 ± 1.1
21 | CC[N+](CC)(CC(=O)Nc1c(C)cccc1C)Cc1ccccc1 [Denatonium benzoate] | 102 ± 5.1 | 99.2 ± 2.9
22 | COc1cc(NS(=O)(=O)c2ccc(N)cc2)nc(OC)n1 [Sulfadimethoxine] | 103 ± 1.6 | 103 ± 5.3
23 | CC1(C)O[C@@H]2[C@@H](CO[C@@]3(COS(N)(=O)=O)OC(C)(C)O[C@@H]23)O1 [Topiramate] | 105 ± 1.8 | 102 ± 0.32
24 | CN(C)c1cc(NC(=O)CNC(C)(C)C)c(O)c2c1C[C@H]1C[C@H]3[C@H](N(C)C)C(O)=C(C(N)=O)C(=O)[C@@]3(O)C(O)=C1C2=O [Tigecycline] | 89.4 ± 2.1 | 85.3 ± 1.8

Row | Structure (SMILES) | growth yield (40 h) [%] | growth yield (72 h) [%]
25 | Cc1cccc(Nc2ccncc2S(=O)(=O)NC(=O)NC(C)C)c1 [Torsemide] | 112 ± 8.7 | 109 ± 2.1
26 | NC(=O)N1c2ccccc2CC(=O)c2ccccc21 [Oxcarbazepine] | 107 ± 4.6 | 106 ± 4.2
27 | CC(C)Cn1cnc2c(N)nc3ccccc3c21 [Imiquimod] | 110 ± 1.4 | 104 ± 1.3
28 | NCCc1cc[nH]n1 [Betazole hydrochloride] | 103 ± 6.5 | 101 ± 5.1
29 | CCCNC(C)C(=O)Nc1c(C)csc1C(=O)OC (configuration not stated) [Articaine hydrochloride] | 98.6 ± 1.8 | 94.1 ± 3
30 | COc1cccc(N(C)C(=S)Oc2ccc3c(c2)CCCC3)n1 [Liranaftate] | 0 | 0
31 | Cc1c(NC(C)C)c(=O)n(-c2ccccc2)n1C [Isopyrin hydrochloride] | 100.9 ± 0.79 | 96.17 ± 0.52
32 | CC(C[N+](C)(C)C)OC(N)=O (configuration not stated) [Bethanechol chloride] | 97.85 ± 0.95 | 97.22 ± 0.1
33 | COc1ccc2c(c1)C(=O)N(CCc1ccc(S(=O)(=O)NC(=O)NC3CCCCC3)cc1)C(=O)C2(C)C [Gliquidone] | 112.6 ± 1.1 | 111 ± 0.21
34 | NS(=O)(=O)Cc1noc2ccccc12 [Zonisamide] | 104.5 ± 0.95 | 98.8 ± 1.9
35 | CN(C)CCN(Cc1ccc(Cl)cc1)c1ccccn1 [Chloropyramine hydrochloride] | 98.8 ± 1.9 | 96.2 ± 2.6
36 | Cc1cn([C@H]2C[C@H](N=[N+]=[N-])[C@@H](CO)O2)c(=O)[nH]c1=O [Zidovudine, AZT] | 99.1 ± 1.3 | 101 ± 1.1
37 | COc1ccc([C@@H]2Sc3ccccc3N(CCN(C)C)C(=O)[C@@H]2OC(C)=O)cc1 [Diltiazem hydrochloride] | 100 ± 2.9 | 99.6 ± 2.7
38 | O=C(O)C[C@H](O)C[C@H](O)/C=C/c1c(C2CC2)nc2ccccc2c1-c1ccc(F)cc1 [Pitavastatin calcium] | 4.13 | 2.94
39 | Cc1ccc(C)c(OCCCC(C)(C)C(=O)O)c1 [Gemfibrozil] | 81 ± 3.5 | 91.35 ± 0.1
40 | O=C(CCCN1CCC(O)(c2ccc(Cl)cc2)CC1)c1ccc(F)cc1 [Haloperidol] | 104 ± 3.2 | 100 ± 2.7
41 | CNCCC=C1c2ccccc2C=Cc2ccccc21 [Norcyclobenzaprine] | 97.7 ± 1.8 | 100 ± 2.3
42 | NC(=O)OCC(O)COc1ccc(Cl)cc1 (configuration not stated) [Chlorphensin carbamate] | 100 ± 2.9 | 97.3 ± 2.9
43 | COC(=O)CCc1ccc(OCC(O)CNC(C)C)cc1 (configuration not stated) [Esmolol hydrochloride] | 105 ± 4.6 | 100 ± 1.5
44 | COCCOC(=O)C1=C(C)NC(C)=C(C(=O)OC(C)C)C1c1cccc([N+](=O)[O-])c1 (configuration not stated) [Nimodipine] | 95.3 ± 7.3 | 97.7 ± 9
45 | CN1C(C(=O)Nc2ccccn2)=C(O)c2ccccc2S1(=O)=O [Piroxicam] | 86.9 ± 5.2 | 90.6 ± 4.8
46 | C[C@]12CCC(=O)C=C1C=C[C@@H]1[C@@H]2CC[C@@]2(C)[C@H]1CC[C@@]21CCC(=O)O1 [Canrenone] | 91.3 ± 4.9 | 93.9 ± 3.5
47 | O=C(c1ccc(F)cc1)C1CCN(CCn2c(=O)[nH]c3ccccc3c2=O)CC1 [Ketanserin tartrate hydrate] | 99.43 ± 0.95 | 100.9 ± 0.42
48 | CCN(CC)C(=O)c1ccc(O)c(OC)c1 [Ethamivan] | 104 ± 3.2 | 103 ± 3.8

Row | Structure (SMILES) | growth yield (40 h) [%] | growth yield (72 h) [%]
49 | Cc1[nH]cnc1CN1CCc2c(c3ccccc3n2C)C1=O [Alosetron hydrochloride] | 95.94 ± 0.64 | 97.3 ± 1.3
50 | CCCOc1ccc2[nH]c(NC(=O)OC)nc2c1 [Oxibendazol] | 16.4 ± 3.6 | 74.6 ± 3.5
51 | CN(C)CCOC(c1ccccc1)c1ccccc1.Cn1c(=O)c2[nH]c(Cl)nc2n(C)c1=O [Dimenhydrinate] | 102 ± 2.1 | 103.2 ± 0.21
52 | CN(CCCN1c2ccccc2CCc2ccccc21)CC(=O)c1ccc(Cl)cc1 [Lofepramine] | 66.1 ± 8.3 | 80.3 ± 3.4
53 | O=C1NCC2(CCN(CCc3ccccc3)CC2)O1 [Fenspiride hydrochloride] | 101.3 ± 0.64 | 102.9 ± 0.73
54 | Clc1ccc2c(c1)CCc1cccnc1C2=C1CCNCC1 [Desloratadine] | 106 ± 6.8 | 105 ± 4.8
55 | CCCNC(=O)NS(=O)(=O)c1ccc(Cl)cc1 [Chlorpropamide] | 101 | 99.6 ± 2.7
56 | CCN(CC)C(C)CN1c2ccccc2Sc2ccccc21 (configuration not stated) [Ethopropazine hydrochloride] | 107 ± 13 | 108 ± 10
57 | CC(=O)O[C@]1(C(C)=O)CC[C@H]2[C@@H]3C=C(Cl)C4=CC(=O)CC[C@]4(C)[C@H]3CC[C@@]21C [Chlormadinone acetate] | 114 ± 1.6 | 111.9 ± 0.1
58 | Cc1cc(O)c(C(=O)N[C@@H](C(=O)N[C@@H]2C(=O)N3C(C(=O)O)=C(CSc4nnnn4C)CS[C@H]23)c2ccc(O)cc2)cn1 [Cefpiramide] | 104 ± 7 | 102 ± 4.3
59 | CO[C@H]1/C=C/O[C@@]2(C)Oc3c(C)c(O)c4c(O)c(c5c(nc6cc(C)ccn65)c4c3C2=O)NC(=O)/C(C)=C\C=C\[C@H](C)[C@H](O)[C@@H](C)[C@@H](O)[C@@H](C)[C@H](OC(C)=O)[C@@H]1C [Rifaximin] | 108 ± 2.5 | 101.9 ± 0.21
60 | Clc1cccc(Cl)c1NC1=NCCN1 [Clonidine hydrochloride] | 102 ± 1.1 | 104 ± 2.6
61 | O=C1[C@H]2CCCC[C@H]2C(=O)N1CCCCN1CCN(c2nsc3ccccc23)CC1 [Perospirone] | 99.1 ± 2.9 | 99.7 ± 3.7
62 | Nc1nc2c(ncn2COC(CO)CO)c(=O)[nH]1 [Ganciclovir] | 106 ± 4.3 | 103 ± 4
63 | NCCCCCC(=O)O [Aminocaproic acid] | 102 ± 2.2 | 95.4 ± 2.3
64 | CN(C)C(=N)NC(=N)N [Metformin hydrochloride] | 105 ± 7.2 | 103 ± 5.3
65 | CC=CC(=O)N(CC)c1ccccc1C [Crotamiton] | 93.6 ± 5.6 | 91.2 ± 3.8
66 | CNCCc1ccccn1 [Betahistine mesylate] | 101 ± 1.4 | 103.2 ± 0.84
67 | CN1CCN(CC(=O)N2c3ccccc3C(=O)Nc3cccnc32)CC1 [Pirenzepine dihydrochloride] | 102 ± 1.6 | 103.7 ± 0.73
68 | CC(=O)N(CC(O)CO)c1c(I)c(C(=O)NCC(O)CO)c(I)c(C(=O)NCC(O)CO)c1I (configuration not stated) [Iohexol] | 103 ± 1.3 | 106 ± 1.1
69 | CN(CCCCCCCCCCN(C)C(=O)Oc1cccc([N+](C)(C)C)c1)C(=O)Oc1cccc([N+](C)(C)C)c1 [Demecarium bromide] | 85.1 ± 2.5 | 101 ± 6.6
70 | COC(=O)Nc1nc2cc(Sc3ccccc3)ccc2[nH]1 [Fenbendazole] | 96.3 ± 3.5 | 98.8 ± 1.3
71 | Cn1c(=O)c2c(ncn2CC2OCCO2)n(C)c1=O [Doxofylline] | 97.5 ± 4.1 | 95.9 ± 2.9
